Laboratory results: PubChem BioAssay AID624417 (National Center for Advancing Translational Sciences (NCATS), 2012)
Out of some 410,000 compounds screened, about 6,400 (1.6%) were called active. The inconclusive results got no clear call from the source; some entries with a clear call stand among them for comparison. Calls follow the shape of the dose curve; as a rule, active = well fitted inhibition curve with a large enough effect; inconclusive = small, poorly fitted or top-dose-only effect; inactive = no such curve, though single readings can be large or run the other way. Potencies beside an inconclusive call are fits to weak or partial responses and may not hold up.

target: Glucagon-like peptide 1 receptor (Homo sapiens) (UniProt P43220); assay: qHTS of GLP-1 Receptor Inverse Agonists (Inhibition Mode); conditions: HEK293 GLP-1R CRE-luciferase, luminescence, 24 h, GLP-1R form is constitutively active; series mostly up to 38.3 µM; also: nearly all actives have a fitted effect of over 55% in size
Procedure, shortened: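 Readout was luciferase luminescence, measured 12 min after detection reagent at room temperature. Beforehand, GLP-1R reporter HEK293 cells had sat 12 h, then received compounds for 24 hr at 37 deg C.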
Potency is read from the fitted curve at half-maximal effect; tags tell the direction and shape of the fitted curve.

Chain of UniProt P43220 (P43220 whole entry, looked up): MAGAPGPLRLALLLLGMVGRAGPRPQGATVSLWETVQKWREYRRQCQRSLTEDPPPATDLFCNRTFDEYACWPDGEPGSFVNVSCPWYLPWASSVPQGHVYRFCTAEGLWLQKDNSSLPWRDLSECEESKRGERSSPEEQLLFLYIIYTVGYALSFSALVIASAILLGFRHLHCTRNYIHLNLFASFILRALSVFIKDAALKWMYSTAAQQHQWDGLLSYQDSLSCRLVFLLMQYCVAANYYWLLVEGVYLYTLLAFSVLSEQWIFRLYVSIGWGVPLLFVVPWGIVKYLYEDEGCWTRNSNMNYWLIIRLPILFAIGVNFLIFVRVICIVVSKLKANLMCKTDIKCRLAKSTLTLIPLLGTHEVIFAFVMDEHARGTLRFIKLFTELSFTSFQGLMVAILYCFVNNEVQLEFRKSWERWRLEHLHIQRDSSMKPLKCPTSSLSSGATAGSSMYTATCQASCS

Potency, inactive:
O=C(CSc1nnnn1Cc1ccccc1)c1ccc(F)cc1
C=CCOc1ccc(/C=N/NC(=O)c2c(C)nc3ccc(Cl)cn23)cc1
COc1ccc(C(=O)/C=C/c2ccc(OC(=O)c3cc(OC)c(OC)c(OC)c3)cc2)cc1
COc1ccc(OCC(O)CN2CCN(c3ncccn3)CC2)cc1 (stereo not drawn)
CCCNC(=O)c1cnc2c(-c3ccc(OCC)c(OCC)c3)c(C)nn2c1-c1ccccc1
CCc1ccccc1N1C(=O)N(CC(=O)c2ccc(OC)cc2)c2ccccc2S1(=O)=O
CCOC(=O)c1c(S(=O)(=O)NCC(=O)N(C)c2ccc(C)cc2)c(C)n(C)c1C
COCCNC(=O)c1c(CS(=O)(=O)c2ccccc2)noc1C(=O)NCc1ccccc1
Cc1ccc(C)c(CN2C(=O)c3ccccc3S(=O)c3ccc(C(=O)NCCC4=CCCCC4)cc32)c1 (stereo not drawn)
O=C(Nc1nnc(-c2ccc(Cl)cc2)o1)Nc1ccccc1F
Cc1cc(-c2ccccc2)nc(N(C)NC(=O)c2cccc(C(F)(F)F)c2)c1S(C)(=O)=O
O=C(Cc1cccc(C(F)(F)F)c1)Nc1cc(S(=O)(=O)N2CCOCC2)ccc1N1CCCC1
CC1(Oc2ccc(Cl)cc2)CCN(Cc2csc3ccccc23)C1 (stereo not drawn)
O=C(O)c1ccccc1S(=O)(=O)Cc1ccccc1

Potency, inconclusive:
COc1ccc(-c2sc3ccccc3c2-c2ccc(O)cc2)cc1 14.1 µM [inhibitor, partial curve, poor fit]
COc1ccc(C(=O)C2CCN(C(=O)c3ccc(F)cc3)CC2)cc1 2.82 µM [inhibitor, partial curve, poor fit]
CCC(C)n1c(/C=C/c2ccccc2)nc2ccccc21 (stereo not drawn) 22.4 µM [inhibitor, partial curve, poor fit]
CC(NC(=S)Nc1c(Cl)cccc1OC(F)F)C(C)(C)C (stereo not drawn) 6.31 µM [inhibitor, partial curve, poor fit]
Cc1ccc(NC(=O)CSC2=C(C#N)C(c3ccco3)CC(=O)N2)cc1 (stereo not drawn) 10 µM [inhibitor, partial curve]
CC(C)(C)OC(=O)N(CCc1ccccc1)Cc1ccc(OCc2cccc(NC(=O)C3CCC3)c2)cc1 8.91 µM [inhibitor, partial curve, poor fit]
CN(C)C(CNC(=O)c1cccc(S(=O)(=O)NCc2ccccc2)c1)c1ccccc1 (stereo not drawn) 8.91 µM [inhibitor, single point]
CCn1c(SCC(=O)N2CCc3ccccc32)nnc1-c1c[nH]c2ccccc12 2 µM [inhibitor, partial curve, poor fit]
CCOC(=O)C(NC(=O)c1ccccc1Cl)(Nc1ccc(C(F)(F)F)cc1)C(F)(F)F (stereo not drawn) 15.8 µM [inhibitor, single point]
O=C(CN(Cc1ccccc1)C1=NCCS1)c1ccc(Cl)cc1 22.4 µM [inhibitor, partial curve, poor fit]
CCCCCc1c(-c2ccc(F)cc2F)ncn1CCc1ccccc1OC 12.6 µM [inhibitor, single point]
Cc1cnc(NC(=O)COc2cccc3c2OC(C)(C)C3)s1 2.82 µM [inhibitor, partial curve, poor fit]
COc1cccc(NC(=O)CN(C)C(=O)c2cc3c(s2)CCCCC3)c1 11.2 µM [inhibitor, partial curve, poor fit]
Cc1ccc(C)c(OCCN2C(=O)NC3(CCc4ccccc4C3)C2=O)c1 (stereo not drawn) 22.4 µM [inhibitor, single point]
CCc1nnc(NC(=O)CC(CN(C)S(=O)(=O)c2ccccc2)c2ccccc2)s1 (stereo not drawn) 28.2 µM [inhibitor, single point]
CCCS(=O)(=O)N1CCN(S(=O)(=O)c2ccccc2[N+](=O)[O-])CC1 2.82 µM [inhibitor, full curve, poor fit]
Nc1ccc(C(=O)NCCCSc2ccccc2)cc1[N+](=O)[O-] 11.2 µM [inhibitor, partial curve, poor fit]
O=C(CNc1ccc(Cl)cc1)NNC(=S)NCc1ccccc1 14.1 µM [inhibitor, single point]
CCCC(=O)c1ccc(N2CCCCCC2)c(F)c1 28.2 µM [inhibitor, single point]
CCN(CCCNC(=O)Cn1ncc2c([nH]c3ccc(C)cc32)c1=O)Cc1ccccc1 12.6 µM [inhibitor, partial curve, poor fit]
O=C(c1ccccc1)N1CCN(C2CC3CCC2C3)CC1 (stereo not drawn) 7.08 µM [inhibitor, partial curve, poor fit]
O=C(CNc1ccc(Br)cc1)Nc1ccc(S(=O)(=O)N2CCCCC2)cc1 10 µM [inhibitor, partial curve, poor fit]
Clc1cccc(CSc2nnc(C3CCNCC3)o2)c1 7.08 µM [inhibitor, partial curve, poor fit]
CCN1CCN(c2ncnc3scc(-c4ccc(OC)cc4)c23)CC1 10 µM [inhibitor, partial curve, poor fit]
Cc1ccc(C(C[N+](=O)[O-])Sc2ccc(N)cc2)cc1 (stereo not drawn) 7.94 µM [inhibitor, partial curve]
COc1ccc(CN2CC(=O)N3[C@H]4c5cc(C)ccc5OC[C@@H]4[C@H](c4ccccc4)[C@]3(C)C2=O)cc1 10 µM [inhibitor, single point]
C=C1CN(Cc2ccccc2)S(=O)(=O)c2ccccc21 28.2 µM [inhibitor, single point]
CCN(c1ccccc1)S(=O)(=O)c1ccc(C(=O)N(C)Cc2cccs2)cc1 17.8 µM [inhibitor, partial curve, poor fit]
CCOC(=O)c1cc(C)n(CC2CCC(C(=O)Nc3cc(OC)cc(OC)c3)CC2)c1C (stereo not drawn) 28.2 µM [inhibitor, single point]
COC(=O)[C@@]1(Cc2ccc(F)cc2)[C@H]2c3cc(C(=O)N(C)C)n(CC4CC4)c3C[C@H]2CN1C(=O)c1ccccc1 10 µM [inhibitor, single point]
COc1ccc(N2CCN(c3oc(Cc4ccccc4)nc3C#N)CC2)cc1 11.2 µM [inhibitor, single point]
CC(C)C[C@@H](CN1CCCC1CN1C(=S)NC[C@@H]1Cc1ccc(O)cc1)N1C[C@H](Cc2ccc(O)cc2)N(CC2CCCCCC2)C1=S (stereo partly drawn) 22.4 µM [inhibitor, single point]
Cc1ccc(S(=O)(=O)N2CCCC(C(=O)NCc3cccnc3)C2)cc1Cl (stereo not drawn) 10 µM [inhibitor, single point]
Cc1ccc(S(=O)(=O)N(c2nc(NC(C)C)nc(NC(C)C)n2)n2cnnc2)cc1 7.08 µM [inhibitor, partial curve, poor fit]
Cc1sc2ncnc(N3CCC(C(=O)Nc4ccc(Cl)c(Cl)c4)CC3)c2c1C 11.2 µM [inhibitor, partial curve, poor fit]
O=C(NC1CCCc2ccccc21)C1CCN(S(=O)(=O)c2cccc(C(F)(F)F)c2)CC1 (stereo not drawn) 11.2 µM [inhibitor, partial curve, poor fit]
Cc1ccc(C)c(S(=O)(=O)N2CCCCC2CCNC(=O)C(=O)NC2CCCC2)c1 (stereo not drawn) 10 µM [inhibitor, partial curve, poor fit]
COc1ccc(NC(=O)CN(C)S(=O)(=O)c2ccc(Br)s2)cc1 10 µM [inhibitor, single point]
CC(=O)c1ccc(N=Nc2ccc(C)cc2)cc1 11.2 µM [inhibitor, single point]
Fc1ccc(C2CCCN2Cc2nc(Cc3ccccc3F)no2)cc1 (stereo not drawn) 10 µM [inhibitor, partial curve, poor fit]
COc1ccc(/C=C/C(=O)c2ccc(Cl)s2)cc1O 0.501 µM [inhibitor, full curve, poor fit]
CC(C)[C@H](NC(=O)OCc1ccccc1)C(=O)OCC(=O)NCCc1ccccc1 28.2 µM [inhibitor, single point]
CC(C)c1ccc(NC(=S)NCc2ccc3c(c2)OCO3)cc1 28.2 µM [inhibitor, single point]
Cc1ccc2c(CC(=O)NCc3cccs3)coc2c1 14.1 µM [inhibitor, partial curve, poor fit]
Brc1cc2c(cc1Br)OCCOCCOCCO2 31.6 µM [inhibitor, single point]
CCCc1nc2c3ccccc3ccn2c1CC1CCCCC1 28.2 µM [inhibitor, single point]
COc1cccc(/C=N/Nc2cc(Cl)nc(C)n2)c1O 11.2 µM [inhibitor, single point]
Cc1cccc(C(=O)NNC(=S)NC(=O)c2cccs2)c1 20 µM [inhibitor, single point]

Potency, active:
CC1CCN(CC(=O)Nc2cccc(C(=O)Nc3cccc(C(F)(F)F)c3)c2)CC1 3.16 µM
